Where a name gives a salt, the structure may show the parent alone. Whole data set: some 2,000 compounds, median “fractional viability relative to vehicle” near 0.91, cut for the lowest 2% near 0.045. The list shows a part of the results.
Test system: TYKNU
Assay: fractional viability relative to vehicle; TYKNU is a high-grade serous ovarian cancer line; higher = less growth inhibition
Conditions: 72 h
Outline: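 TYKNU control cells or lentiCRISPRv2 knockout derivatives were plated at 500 cells per well in duplicate into drug-stamped 384-well plates holding a ~2100-compound library at 2 or 10 μM. Culture was in RPMI 1640 with 10% FBS at 37 °C in 5% CO2, with 72 h of drug treatment. Viability was measured by Cell Titer Glo luminescence, and the averaged duplicate treatment wells were normalised to duplicate control wells at the same plate position.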

[1] = 2uM, genotype: DNM1L knockout (sgDNM1L #1)
[2] = 2uM, genotype: sgCTRLA1 (non-targeting control)
[3] = 10uM, genotype: DNM1L knockout (sgDNM1L #1)
[4] = 10uM, genotype: sgCTRLA1 (non-targeting control)

Structure (SMILES)	fractional viability [1]	fractional viability [2]	fractional viability [3]	fractional viability [4]
CNS(=O)(=O)CCc1ccc2[nH]cc(C3CCN(C)CC3)c2c1 [Naratriptan]	1.02	1.07	0.947	1.01
CC(=O)Oc1ccccc1C(=O)O [Aspirin]	0.863	1.09	1.01	1.05
N=C(N)NS(=O)(=O)c1ccc(N)cc1 [Sulfaguanidine]	0.76	1.12	1.2	1.16
O=C(Nc1nc2cccc(-c3ccc(CN4CCS(=O)(=O)CC4)cc3)n2n1)C1CC1 [Filgotinib (GLPG0634)]	0.73	0.849	0.493	0.573
COc1ccc2ccc(=O)oc2c1CC=C(C)C [Osthole]	0.841	1.11	0.878	1.11
CC1=C(/C=C/C(C)=C/C=C/C(C)=C/C(=O)O)C(C)(C)CCC1 [Tretinoin]	0.784	1.03	0.678	1.02
C[C@]12CC[C@H](O)CC1=CC[C@@H]1[C@@H]2CC[C@]2(C)C(n3cnc4ccccc43)=CC[C@@H]12 [Galeterone]	1.06	1.2	0.62	1
CN(C)CCOC(c1ccccc1)c1ccccc1 [Diphenhydramine HCl]	0.926	1.2	0.938	1.02
CCOC(=O)CCNc1cc(N2CCc3ccccc3CC2)nc(-c2ccccn2)n1	0.825	0.827	0.105	0.0825
COc1ccc2[nH]c([S+]([O-])Cc3ncc(C)c(OC)c3C)nc2n1 (centres undefined) [Tenatoprazole]	0.907	1.23	0.706	1.2
CC(=O)[C@H]1CC[C@H]2[C@@H]3CCC4=CC(=O)CC[C@]4(C)[C@H]3CC[C@]12C [Progesterone]	0.878	0.943	0.785	0.879
Cn1cc(CNCC2CCN(c3ncc(C(=O)NO)cn3)CC2)c2ccccc21	0.0832	0.115	0.0838	0.105
CN(C)CC/C=C1/c2ccccc2Sc2ccc(Cl)cc21 [Chlorprothixene]	1.09	1.07	0.734	0.947
C[C@]12CC[C@@H]3c4ccc(O)cc4CC[C@H]3[C@@H]1CC[C@@H]2O [Estradiol]	0.859	1.12	0.757	0.975
CCNC(=O)Nc1ccc(-c2nc3c(c(N4CCOC[C@@H]4C)n2)CCN(C2COC2)C3)cc1	0.812	0.971	0.926	0.811
CCCN(CCC)S(=O)(=O)c1ccc(C(=O)O)cc1 [Probenecid]	1.19	1.04	1.1	0.964
CCNC(=O)c1[nH]nc(-c2cc(Cl)c(O)cc2O)c1-c1ccc(OC)cc1	0.407	0.325	0.26	0.139
CC(C)c1ccc(NC(=O)Cn2cnc3c2c(=O)n(C)c(=O)n3C)cc1	1.07	1.17	0.831	1.07

Structure (SMILES)	fractional viability [1]	fractional viability [2]	fractional viability [3]	fractional viability [4]
C[C@H](NC(=O)/C(C#N)=C/c1cccc(Br)n1)c1ccccc1	0.9	0.999	0.0615	0.0707
Fc1ccc(Cl)cc1-c1nc(Nc2ccncc2)c2nccnc2n1	0.924	1	0.895	0.702
CO[C@H]1C[C@@H]2CC[C@@H](C)[C@@](O)(O2)C(=O)C(=O)N2CCCC[C@H]2C(=O)O[C@H]([C@H](C)C[C@@H]2CC[C@@H](OCCO)[C@H](OC)C2)CC(=O)[C@H](C)/C=C(\C)[C@@H](O)[C@@H](OC)C(=O)[C@H](C)C[C@H](C)/C=C/C=C/C=C/1C [Everolimus (RAD001)]	0.676	0.719	0.57	0.615
CN(C)CCN(Cc1ccccc1)c1ccccn1 [Tripelennamine HCl]	0.994	1.11	0.752	1.14
CC1CNc2c(cccc2S(=O)(=O)N[C@@H](CCCNC(=N)N)C(=O)N2CC[C@@H](C)C[C@@H]2C(=O)O)C1 (some centres undefined) [Argatroban]	1.09	1.15	0.917	0.969
COc1ccccc1N1CCN(CCN(C(=O)C2CCCCC2)c2ccccn2)CC1	0.867	1.06	0.79	0.973
Nc1ccn([C@@H]2O[C@H](CO)[C@@H](O)C2(F)F)c(=O)n1 [Gemcitabine]	0.129	0.158	0.123	0.107
CC(=O)O[C@@]12CO[C@@H]1C[C@H](O)[C@@]1(C)C(=O)[C@H](O)C3=C(C)[C@@H](OC(=O)[C@H](O)[C@@H](NC(=O)OC(C)(C)C)c4ccccc4)C[C@@](O)([C@@H](OC(=O)c4ccccc4)[C@H]21)C3(C)C [Docetaxel]	0.303	0.3	0.203	0.278
O=C(/C=C/c1ccccc1)NC(NC(=S)Nc1cccc2cccnc12)C(Cl)(Cl)Cl (centres undefined) [Salubrinal]	0.989	1.02	0.568	0.955
Nc1ncnc2c1ncn2[C@@H]1O[C@H](CO)[C@@H](O)[C@H]1O [Adenosine]	0.806	1.1	0.881	1.14
Clc1ccc(CSC(Cn2ccnc2)c2ccc(Cl)cc2Cl)cc1 (centres undefined) [Sulconazole Nitrate]	1.09	1.01	0.628	0.876
O=C(c1ccc(Nc2nccc(-c3cc4ccccc4s3)n2)cc1)N1CCC(N2CCCC2)CC1 [IKK-16 (IKK Inhibitor VII)]	0.942	0.839	0.0381	0.0277
Cc1cc(/C=C2/SC(=S)NC2=O)c(C)n1-c1cccnc1 [Optovin]	0.901	0.933	0.922	0.876
Cc1cc(C)c(Nc2ccnc(Nc3ccc(C#N)cc3)n2)c(C)c1 [Dapivirine (TMC120)]	0.713	0.877	0.343	0.353
O=C(O)C(O)Cc1ccc(O)c(O)c1 (centres undefined) [Sodium Danshensu]	1.16	1.13	1.07	1.05
COc1cc(C(=O)O)ccc1NC(=O)[C@@H]1N[C@@H](CC(C)(C)C)[C@](C#N)(c2ccc(Cl)cc2F)[C@H]1c1cccc(Cl)c1F [Idasanutlin (RG-7388)]	0.719	1.08	0.395	0.747
N[C@@H](Cc1cc(I)c(Oc2cc(I)c(O)c(I)c2)c(I)c1)C(=O)O [L-Thyroxine]	1.03	1.03	0.941	1.01
CC1(C)CCC(C)(C)c2cc(NC(=O)c3ccc(C(=O)O)cc3)ccc21 [Tamibarotene]	0.823	1.01	0.78	1.01

Reference: the supplement of paper PMC5919970
